Source: the supplement of paper PMC9334596
Where “and” joins values, the source holds several entries; their conditions need not be identical. Equal entries are not always repeated. The full ranking holds about 5,300 compounds; the median of “PER2::LUC luminescence relative to vehicle control” is about 0.96, and the highest 2% start at about 1.3. The list shows a part of the results.

Test system: mPer2Luc MEF
Assay: PER2::LUC luminescence relative to vehicle control (fold of vehicle); higher = higher PER2::LUC reporter signal
Details: 10 µM
Method in brief: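 Mouse embryonic fibroblasts carrying the mPer2Luc reporter were seeded at ~3000 cells per well in 384-well plates, 48 h before compounds from commercial libraries were added at 10 μM. Cells were grown in DMEM with 10% FBS at 37 °C and 5% CO2. Luminescence was read with the ONE-Glo luciferase assay system 24 h and 30 h after treatment, followed by an alamarBlue viability assay. The value is PER2::LUC luminescence as fold of vehicle control.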

Compound | PER2::LUC luminescence (time after treatment 24 h) | PER2::LUC luminescence (time after treatment 30 h)
COc1cc(C(C)=O)ccc1OCCCN1CCC(c2noc3cc(F)ccc23)CC1 | 0.924 | 0.863
CCOC(=O)[C@H](CCc1ccccc1)N[C@H]1CCCN2CCC[C@@H](C(=O)O)N2C1=O | 1.24 | 1.13
CCOc1ccc(Cc2cc([C@]34OC[C@](CO)(O3)[C@@H](O)[C@H](O)[C@H]4O)ccc2Cl)cc1 | 1.05 | 1.06
CN1[C@@H]2CC[C@H]1CC(OC(=O)c1c[nH]c3ccccc13)C2 (some centres undefined) | 0.775 | 0.9
CCCCCCCCCCCCCCCCCCOCC(COP(=O)([O-])OCC[N+](C)(C)C)OC (centres undefined) | 0.911 | 0.947
COc1cccc(-c2ccc([C@@H](Oc3cc(-c4ccc(C[C@H](N)C(=O)O)cc4)nc(N)n3)C(F)(F)F)cc2)c1 | 1.01 | 0.971
COc1cc(C(O)CO)ccc1OS(=O)(=O)O (centres undefined) | 1.07 | 0.824
CC(C)c1c(O)ccc2c1CC[C@H]1C(C)(C)CCC[C@]21C | 0.774 | 0.925
c1cc(-c2cnn3cc(-c4ccc(N5CCNCC5)cc4)cnc23)c2cccnc2c1 | 0.122 | 0.17
CON(Cc1ccc(F)cc1)C(=O)/C=C(\O)C(=O)O | 0.942 | 0.968
CCCCC(CC)COC(=O)C=Cc1ccc(OC)cc1 (centres undefined) | 1.09 | 1.14
CCCC(C(=O)O)c1c(C)nc2ccc(Cl)cc2c1-c1ccccc1 (centres undefined) | 1.02 | 0.957
COC(=O)c1c(C)[nH]c(C)c1C(=O)c1ccccc1Cc1ccccc1 | 0.992 | 0.83
O=C1O/C(=C/Br)CCC1c1cccc2ccccc12 (centres undefined) | 1.02 | 1.04
CCCCN(Cc1ccc(C(=O)NO)cc1)C(=O)Nc1ccccc1 | 0.455 | 0.837
COC(=O)N[C@H](C(=O)N1CCC[C@H]1c1ncc(-c2ccc(-c3ccc(-c4cnc([C@@H]5CCCN5C(=O)[C@@H](NC(=O)OC)C(C)C)[nH]4)cc3)cc2)[nH]1)C(C)C | 0.672 | 0.674
CC(C(=O)O)c1cccc(C(=O)c2ccccc2)c1 (centres undefined) | 0.655 | 1.01
Nc1nc(N)c2nc(CNc3ccc(C(=O)N[C@@H](CCC(=O)O)C(=O)O)cc3)cnc2n1 | 0.809 | 0.637
O=NN(CCCl)C(=O)NCCCl | 0.958 | 0.982
CCOC(=O)c1ncn2c1CN(C)C(=O)c1cc(F)ccc1-2 | 1.01 | 1.01
COc1cc(/C=C/c2ccc(O)cc2)cc(OC)c1 | 1.03 | 0.93

Compound | PER2::LUC luminescence (time after treatment 24 h) | PER2::LUC luminescence (time after treatment 30 h)
NCC(O)(CS(=O)(=O)O)c1ccc(Cl)cc1 (centres undefined) | 1.12 | 1.18
CC[C@H](NC(=O)c1c(C)c(-c2ccccc2)nc2ccccc12)c1ccccc1 | 1.01 | 0.887
CNC(=O)c1ccccc1Nc1nc(Nc2ccc(N3CCOCC3)cc2OC)ncc1Cl | 0.37 | 0.217
CC1=C(C(=O)Nc2cc3cn[nH]c3cc2F)C(c2ccc(C(F)(F)F)cc2)CC(=O)N1 (centres undefined) | 0.741 | 0.877
CO/S(=N\S(=O)(=O)c1ccc(Cl)cc1)c1ccc([N+](=O)[O-])cc1 (centres undefined) | 0.994 | 1.22
Cc1cc(C)c2c(c1)[C@@H](N(Cc1cc(C(F)(F)F)cc(C(F)(F)F)c1)c1nnn(C)n1)CCCN2C[C@H]1CC[C@H](C(=O)O)CC1 | 1.13 | 1.19
Cn1c(C#N)ccc1-c1ccc2c(c1)C(C)(C)OC(=S)N2 | 0.558 | 0.575
CC1=C(/C=C/C(C)=C/C=C/C(C)=C/C=C/C=C(C)/C=C/C=C(C)/C=C/C2=C(C)C(=O)CCC2(C)C)C(C)(C)CCC1=O | 0.908 | 0.963
Cn1c(=O)n(-c2ccc(C(C)(C)C#N)cc2)c2c3cc(-c4cnc5ccccc5c4)ccc3ncc21 | 0.194 | 0.233
CC1(C)CC23C(=O)CCC(O)C2(C)CCC13 (centres undefined) | 0.96 | 0.967
CCOC(=O)C1=C(C)NC(C)=C(C(=O)OCC)C1c1ccccc1/C=C/C(=O)OC(C)(C)C | 0.994 | 0.996
CCOc1cc(CC(=O)N[C@@H](CC(C)C)c2ccccc2N2CCCCC2)ccc1C(=O)O | 0.961 | 0.997
O=C(O)C(Cc1c[nH]c2ccccc12)N1C(=O)c2ccccc2C1=O (centres undefined) | 1.08 and 0.907 | 1.04 and 0.907
COc1cc2c(cc1OC)C1(O)C(=O)c3ccc(O)c(C(=O)O)c3OC1CO2 (centres undefined) | 1 | 0.915
CCC(C(N)=O)c1ccccc1 (centres undefined) | 1 | 0.904
C#C[C@]1(O)CC[C@H]2[C@@H]3CCc4cc(O)ccc4[C@H]3CC[C@@]21C | 0.981 and 0.937 | 1.09 and 0.892
NC(CCCP(=O)(O)O)C(=O)O (centres undefined) | 1.06 | 0.968
NCCCC[C@H](NC(=O)[C@@H]1CCCN1C(=O)[C@@H]1CSSC[C@H](N)C(=O)N[C@@H](Cc2ccccc2)C(=O)N[C@@H](Cc2ccccc2)C(=O)N[C@@H](CCC(N)=O)C(=O)N[C@@H](CC(N)=O)C(=O)N1)C(=O)NCC(N)=O | 1.08 | 1.13
Cc1occc(=O)c1O | 0.968 and 1 | 0.995 and 0.951
CC#CC(=O)Nc1ccc2ncnc(Nc3cccc(Br)c3)c2c1 | 0.486 | 0.447
O=S(=O)(c1ccccc1)N(CC(F)(F)F)c1ccc(C(O)(C(F)(F)F)C(F)(F)F)cc1 | 1.22 | 1.18
